From PubChem BioAssay AID504466 (National Center for Advancing Translational Sciences (NCATS), 2011)
The whole screen tested about 330,000 compounds, of which about 4,200 (1.3%) were called active. Inconclusive means that the source gave no clear call. Such entries were picked first, then a sample of the others. Calls follow the shape of the dose curve; as a rule, active = well fitted activation curve with a large enough effect; inconclusive = small, poorly fitted or top-dose-only effect; inactive = no such curve, though single readings can be large or run the other way. Potencies beside an inconclusive call are fits to weak or partial responses and may not hold up.
Potency is read from the fitted curve at half-maximal effect; tags tell the direction and shape of the fitted curve.

Test: qHTS screen for small molecules that induce genotoxicity in human embryonic kidney (HEK293T) cells expressing luciferase-tagged ELG1; also: nearly all actives have a fitted effect of over 60% in size; as to activity change, positive = activation: % of control where 0% means no effect
Details: HEK293T ELG1-luciferase reporter, luminescence, 16 h; series mostly up to 46 µM; activity change, positive = activation: at the top concentration
Outline: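 HEK293T cells expressing luciferase-tagged ELG1 were treated with compound or DMSO for 16 hr at 37°C. Luciferase activity was then read after 30 min with ONE-Glo at room temperature; rising signal flags genetic stress.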
In the case of Cc1ccn2cc(C(=O)Nc3cccc(C(=O)NC4CC4)c3)nc2c1, the “activity change, positive = activation” value is reported as inactive: -7.51%.
With Cc1ccc(Nc2nc(N)nc(-c3oc4ccccc4c3C)n2)cc1 the Potency was active: 9.2 µM.
For Oc1ccc(CN2CCC(Cc3ccccc3)CC2)c2cccnc12, the Potency was inconclusive: 29.1 µM [activator, single point].
In the case of CCOC(=O)c1oc2c(c1C)/C(=N/O)CCC2, the Potency is reported as inconclusive: 16.4 µM [activator, partial curve].
In the case of CN(C)/C=C(\C#N)C(=O)Nc1ccc(F)c(Cl)c1, the Potency is reported as inconclusive: 8.2 µM [activator, partial curve, poor fit].
For Cc1ccc(C)c(-c2nc3ccc(N)cc3[nH]2)c1, the Potency was inconclusive: 23.1 µM [activator, partial curve, poor fit].
With NC(=O)c1ccsc1NC(=O)c1cc(=O)c2ccccc2o1 the Potency was inconclusive: 4.11 µM [activator, full curve, poor fit].
With CCn1c(=O)cc(SCC(=O)N2CCCCC2)c2ccccc21 the Potency was inconclusive: 14.6 µM [activator, partial curve, poor fit].
With COc1ccc(N/C=C/C(=O)c2cc(OC)c(OC)c(OC)c2)cc1 the Potency was inconclusive: 16.4 µM [activator, partial curve].
For CCc1ccccc1NC(=O)c1cc(-c2ccc3c(c2)OCO3)on1, the Potency was inconclusive: 11.6 µM [activator, partial curve].
With COc1ccc(S(=O)(=O)N2CCOCC2)cc1NC(=O)COC(=O)C1CC1C (configuration not stated) the “activity change, positive = activation” value was inactive: -2.76%.
In the case of CCSc1nnc(NC(=O)c2ccc(C)o2)s1, the Potency is reported as active: 18.4 µM.
In the case of COc1cc(N/N=C/c2ccc(N(C)C)cc2)ncn1, the Potency is reported as active: 1.16 µM.
For Cc1ccc(C(=O)CC(=O)c2cccc(F)c2)c(O)c1, the Potency was inconclusive: 29.1 µM [activator, single point].
For Cn1ccnc1SCC(=O)c1ccc(OC(F)F)cc1, the Potency was inconclusive: 18.3 µM [activator, partial curve].
For COc1cc2ccccc2cc1C(=O)Nc1cccnc1, the Potency was active: 8.2 µM.
For COc1ccc2c(c1OC)C(=O)OC2Nc1ccccn1 (configuration not stated), the “activity change, positive = activation” value was inactive: 1.11%.
For O=C(NC1CCCCCCC1)c1ccc2c(c1)OCO2, the Potency was active: 2.06 µM.
In the case of C=CCn1c(C)csc1=Nc1ccc(C(C)=O)cc1, the Potency is reported as inconclusive: 20.6 µM [activator, single point].
In the case of COc1ccc(C(=O)/C=C/Nc2cc(C)ccn2)cc1, the Potency is reported as inconclusive: 0.58 µM [activator, full curve].
For C(=N\Nc1nc2ccccc2[nH]1)/c1ccc2c(c1)OCO2, the Potency was inconclusive: 0.206 µM [activator, full curve, poor fit].
With COc1cc(NC(=S)NC(=O)c2ccco2)ccc1NC(=O)C(C)C the “activity change, positive = activation” value was inactive: 8.52%.
In the case of N/C(=N\OC(=O)c1cc([N+](=O)[O-])ccc1Cl)c1cccnc1, the Potency is reported as inconclusive: 29.1 µM [activator, single point].
For Cc1ccccc1N1CCN(C(=O)c2cc(C3CC3)nn2-c2ccccc2)CC1, the “activity change, positive = activation” value was inactive: -1.34%.
In the case of O=C(Nc1ccc(Cl)cc1)c1ccc2ncsc2c1, the Potency is reported as inconclusive: 16.4 µM [activator, partial curve].
In the case of CC(CC(=O)Nc1nc2ccccc2[nH]1)c1ccccc1 (configuration not stated), the Potency is reported as inconclusive: 4.61 µM [activator, full curve].
With Cc1noc(C)c1-c1ccc2ncnc(NC(C)c3ccco3)c2c1 (configuration not stated) the Potency was active: 16.4 µM.
In the case of Nc1ccccc1C(=O)Nc1ccc(Cl)cc1Cl, the Potency is reported as inconclusive: 18.3 µM [activator, partial curve].
In the case of NC(=S)N/N=C/c1ccc2c(c1)OCCO2, the Potency is reported as inconclusive: 20.6 µM [activator, partial curve, poor fit].
With O=C(O)c1ccc(-n2nnc3ccccc32)c([N+](=O)[O-])c1 the “activity change, positive = activation” value was inactive: 4.94%.
In the case of CCOC(=O)N1CCC(N2Cc3cccc(C(=O)Nc4ccc(OCC)cc4)c3C2=O)CC1, the “activity change, positive = activation” value is reported as inactive: -6.71%.
In the case of COc1ccc(/C=C/c2noc(-c3ccccc3OC(C)=O)n2)cc1, the Potency is reported as inconclusive: 14.6 µM [activator, partial curve].
With O=C(Nc1n[nH]c(=S)s1)c1ccc2ccccc2c1 the Potency was inconclusive: 1.46 µM [activator, full curve].
In the case of Cc1ccc2c(C)c(C(=O)N3CCCC(C(N)=O)C3)oc2c1C (configuration not stated), the Potency is reported as inconclusive: 18.3 µM [activator, single point].
For CCCCCC(=O)Nc1nc2ccccc2[nH]1, the Potency was inconclusive: 20.6 µM [activator, partial curve, poor fit].
In the case of CCOc1ccc(NC(=O)[C@@H](NC(=O)c2ccccc2)[C@@H](C)CC)cc1, the Potency is reported as inconclusive: 29.1 µM [activator, partial curve, poor fit].
For CC(=O)c1cc(C#N)c(SCc2ccc(F)cc2)nc1C, the Potency was inconclusive: 11.2 µM [activator, partial curve].
For COc1ccc(S(=O)(=O)N2CCCCCC2)cc1C(=O)OCC(=O)Nc1cc(C)on1, the Potency was inconclusive: 18.3 µM [activator, partial curve, poor fit].
With CC(C)Cc1ccc(/C=C/C(=O)NC2CC2)cc1 the Potency was active: 16.4 µM.
For CC1CC1C(=O)OCC(=O)NCc1ccccc1Cl (configuration not stated), the “activity change, positive = activation” value was inactive: -0.258%.
With O=C(NCc1cccnc1)C(C(=O)c1ccc(F)cc1)n1ccccc1=O (configuration not stated) the Potency was active: 18.4 µM.
With Cc1ccc(CNc2nc(Cl)c(C#N)s2)cc1 the Potency was inconclusive: 9.2 µM [activator, partial curve, poor fit].
For N#Cc1ccc(C(=O)OCC(=O)N2CCCCCC2)cc1, the “activity change, positive = activation” value was inactive: 1.71%.
For COc1ccc(/C=C2\C(=O)ON=C2c2ccccc2)cc1OC, the Potency was inconclusive: 20.6 µM [activator, single point].
With Cc1ccc(N2CS(=O)(=O)/C(=C/N(C)C)C2=O)cc1 the Potency was inconclusive: 14.6 µM [activator, partial curve, poor fit].
For CCC(=O)Nc1ccc(C2C(=O)c3ccccc3C2=O)cc1, the Potency was inconclusive: 7.3 µM [activator, partial curve, poor fit].
For C/C(=N\NC(=O)OC(C)(C)C)c1cccc([N+](=O)[O-])c1, the Potency was inconclusive: 20.6 µM [activator, partial curve, poor fit].
For Clc1ccccc1-c1nc(-c2ccncc2)no1, the Potency was active: 10.3 µM.
In the case of COc1cc(C(C[N+](=O)[O-])c2c(-c3ccccc3)cc3ccccn23)cc(OC)c1OC (configuration not stated), the Potency is reported as inconclusive: 18.4 µM [activator, partial curve, poor fit].
With COc1ccc(C(=O)c2ccc(Cl)c([N+](=O)[O-])c2)cc1 the Potency was inconclusive: 8.2 µM [activator, partial curve].
With COc1ccc(C(=O)Nc2ccc(C(=O)Nc3cccc(C)c3)cc2)cc1 the Potency was active: 13 µM.
For O=c1c2ccccc2nc(/C=C/c2ccc([N+](=O)[O-])o2)n1CCCO, the Potency was inconclusive: 4.11 µM [activator, partial curve, poor fit].
In the case of Cc1ccc(S(=O)(=O)N(C)C)cc1NC(=O)c1cc(-c2ccco2)nc2ccccc12, the Potency is reported as inconclusive: 29.1 µM [activator, partial curve, poor fit].
For Cc1ccc(S(=O)(=O)NC(=O)Nc2ccc(N(C)C)cc2)cc1, the Potency was inconclusive: 1.46 µM [activator, partial curve, poor fit].
With Cc1ccc(CN2C(=O)CSC2c2cccnc2)cc1 (configuration not stated) the Potency was inconclusive: 6.51 µM [activator, partial curve, poor fit].
For Cc1ncsc1CCOC(=O)c1ccccc1, the Potency was inconclusive: 18.3 µM [activator, partial curve, poor fit].
In the case of Cc1nc(C(=O)NNC(=O)c2c(-c3c(Cl)cccc3Cl)noc2C)cs1, the Potency is reported as inconclusive: 29.1 µM [activator, single point].
For Cc1ccc(CCNC(=O)c2sc3nc4n(c(=O)c3c2C)CCC4)cc1, the “activity change, positive = activation” value was inactive: 1.32%.
With COC(=O)C1=C(CS(=O)(=O)c2cc(Cl)ccc2OC)NC(=O)NC1c1ccc(O)c(OC)c1 (configuration not stated) the “activity change, positive = activation” value was inactive: 0.294%.
In the case of Cc1cc(/C=C2\SC(=S)NC2=O)c(C)n1-c1ccc(O)cc1, the Potency is reported as inconclusive: 6.51 µM [activator, partial curve, poor fit].
For Cc1ccc2nc(NC(=O)c3ccc4ncsc4c3)sc2c1, the Potency was active: 2.91 µM.
In the case of O=C(Nc1ccc2c(c1)OCO2)c1ccc(CO)cc1, the Potency is reported as inconclusive: 9.2 µM [activator, partial curve].
With CCOC(=O)c1c(C)[nH]c(C(=O)COC(=O)c2cccnc2Cl)c1C the Potency was inconclusive: 11.6 µM [activator, partial curve, poor fit].
With CCCCOc1ccc(-c2ncc(N)cn2)cc1 the Potency was inconclusive: 2.06 µM [activator, full curve, poor fit].
With COc1ccc(-c2nnc(SCC#N)o2)cc1 the Potency was inconclusive: 23.1 µM [activator, partial curve, poor fit].
For Cc1scc(C(=O)N/N=C/c2ccco2)c1C, the Potency was inconclusive: 14.6 µM [activator, partial curve].
With CCCS(=O)c1nc(C)cc(C)c1S(C)(=O)=O (configuration not stated) the “activity change, positive = activation” value was inactive: -1.14%.
For COc1ccc2cc(-c3ccccc3F)ncc2c1, the Potency was inconclusive: 1.64 µM [activator, full curve].
For O=C(Nc1ccc(Oc2ccc(Cl)cc2)cc1)c1ncn[nH]1, the “activity change, positive = activation” value was inactive: -3.37%.
With CCc1cc(=O)oc2c3c(cc(OCC(=O)NCCCn4ccnc4)c12)OC(C)(C)CC3 the “activity change, positive = activation” value was inactive: 9.82%.
With Cc1ccc(Nc2nc(-c3ccc(S(=O)(=O)N4CCOCC4)cc3)cs2)cc1Cl the Potency was inconclusive: 32.6 µM [activator, partial curve, poor fit].
In the case of CN1CC(=O)N(CC(=O)Nc2ccc(F)cc2)c2ccccc2C1=O, the “activity change, positive = activation” value is reported as inactive: -3.31%.
